Screen size: about 410,000 compounds; about 6,400 (1.6%) were called active. The shares of active, inactive and inconclusive entries below differ from those in the screen. Calls come from the whole dose curve; as a rule, active = well fitted inhibition curve with a large enough effect; inconclusive = small, poorly fitted or top-dose-only effect; inactive = no such curve, though single readings can be large or run the other way. A potency beside an inconclusive call is a rough fit, not a confirmed value.
molecular target: Glucagon-like peptide 1 receptor (Homo sapiens) (UniProt P43220); test: qHTS of GLP-1 Receptor Inverse Agonists (Inhibition Mode); settings: HEK293 GLP-1R CRE-luciferase, luminescence, 24 h, GLP-1R form is constitutively active; series mostly up to 38.3 µM; note: nearly all actives have a fitted effect of over 55% in size
In short: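 Constitutively active GLP-1R drives a cAMP-responsive luciferase in stably transfected HEK293 cells; test compounds are added after overnight (12 h) attachment and left 24 hr, and signal loss in luminescence marks inhibition.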
Potency is the fitted concentration of half-maximal effect; tags give direction and shape of the fitted curve.

UniProt P43220, sequence (P43220 whole entry, looked up): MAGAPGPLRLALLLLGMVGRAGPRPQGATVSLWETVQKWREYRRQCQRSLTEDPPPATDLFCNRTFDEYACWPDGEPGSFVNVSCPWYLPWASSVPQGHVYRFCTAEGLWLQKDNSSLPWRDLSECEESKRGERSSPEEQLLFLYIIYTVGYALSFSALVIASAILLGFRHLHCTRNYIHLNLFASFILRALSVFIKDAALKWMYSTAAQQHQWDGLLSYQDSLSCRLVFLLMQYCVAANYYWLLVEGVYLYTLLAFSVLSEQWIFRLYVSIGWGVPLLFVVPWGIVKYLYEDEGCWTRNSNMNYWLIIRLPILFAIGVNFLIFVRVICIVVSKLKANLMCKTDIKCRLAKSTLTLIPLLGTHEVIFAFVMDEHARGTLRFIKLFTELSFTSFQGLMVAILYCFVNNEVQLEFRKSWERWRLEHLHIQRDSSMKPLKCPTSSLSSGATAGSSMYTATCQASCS

Potency, inconclusive:
O=C(CSc1nnc(-c2ccc(Br)o2)n1Cc1ccccc1)c1ccccc1F 7.94 µM [inhibitor, partial curve, poor fit]
O=C(O)c1cccc(Nc2ncnc3c2cnn3-c2ccccc2)c1 10 µM [inhibitor, single point]
COc1ccccc1CCNC(=O)C1CCN(c2nnc(-n3cccc3CNc3ccc(C)cc3)s2)CC1 14.1 µM [inhibitor, partial curve, poor fit]
CC(C)COc1ccc(C(=O)OCC(=O)NCc2cccs2)cc1 22.4 µM [inhibitor, single point]
Cc1ccccc1CN1CCSc2sccc2C1=O 6.31 µM [inhibitor, partial curve]
CCCc1cc(C(=O)N2CCCC(C(=O)c3cccc4ccccc34)C2)n(C)n1 (centres undefined) 3.55 µM [inhibitor, partial curve, poor fit]
CCOC(=O)C1(C)C=C(Nc2ccccc2)C(=O)N1c1ccccc1 (centres undefined) 10 µM [inhibitor, partial curve, poor fit]
CC(C)c1ccc(C(=O)NCCCN2CCN(CCCNC(=O)c3ccc(C(C)C)cc3)CC2)cc1 28.2 µM [inhibitor, single point]
CN(CC(=O)Nc1ccc(Cl)c(C(F)(F)F)c1)C(=O)C1CC(=O)N(c2ccc3c(c2)OCCO3)C1 (centres undefined) 10 µM [inhibitor, partial curve, poor fit]
COc1cc(CNCCO)ccc1OC1CCCC1 28.2 µM [inhibitor, single point]
Cc1ccc2nc(-c3ccc(F)cc3)c(Cc3ccccc3C(F)(F)F)n2c1 11.2 µM [inhibitor, single point]
Cc1cccc(NC(=S)NC(C)C(c2ccccc2)N2CCN(C)CC2)c1C (centres undefined) 12.6 µM [inhibitor, single point]
COc1ccc(CN(C)C[C@@H]2OCCCC[C@H](C)Oc3ccc(NC(=O)Nc4ccc(F)cc4)cc3C(=O)N([C@H](C)CO)C[C@H]2C)cc1 11.2 µM [inhibitor, single point]
Cc1onc(-c2ccccc2)c1C(=O)OCC(=O)Nc1ccccc1 11.2 µM [inhibitor, single point]
NS(=O)(=O)c1ccc(NC(=S)N2CCc3ccccc32)cc1 12.6 µM [inhibitor, single point]
O=C(NCc1ccccc1Cl)C1CCCN(S(=O)(=O)c2cccc3nsnc23)C1 (centres undefined) 10 µM [inhibitor, single point]
Cc1nnsc1NC(=O)OCc1ccc(C(C)(C)C)cc1 10 µM [inhibitor, partial curve, poor fit]
COc1ccc(NC(=O)CN2CCN(Cc3ccc(F)cc3)S2(=O)=O)cc1Cl 17.8 µM [inhibitor, partial curve, poor fit]
Cc1ccccc1CC1(CO)CCCN(Cc2ccc(C#CC(C)(C)O)cc2)C1 (centres undefined) 5.62 µM [inhibitor, partial curve, poor fit]
CC(C(=O)NCc1ccc(Cl)cc1)n1ccc2cc(S(=O)(=O)N3CCCCCC3)ccc21 (centres undefined) 11.2 µM [inhibitor, partial curve, poor fit]
Cc1ccc(CCNC(=O)c2cc(C)nn2-c2ccccc2)cc1 31.6 µM [inhibitor, single point]
CN(Cc1ccc(F)cc1)C(=O)C(c1ccccc1)c1ccccc1 14.1 µM [inhibitor, single point]
Cc1ccc(-n2ncc(C(=O)NC3CC3)c2C2CCN(C(=O)OC(C)(C)C)CC2)c(C)c1 28.2 µM [inhibitor, single point]
CCCN(CCC)CC(O)Cn1cc(/C=C/C(=O)c2ccc(C)cc2)c2ccccc21 (centres undefined) 7.08 µM [inhibitor, partial curve]
OC(c1cc(F)cc(Cl)c1)c1ncc(-c2ccc(Cl)cc2)[nH]1 (centres undefined) 11.2 µM [inhibitor, partial curve, poor fit]
C#CCn1ccc(O)c(Cc2c(F)cccc2Cl)c1=O 12.6 µM [inhibitor, partial curve]
CCO[C@H]1OC(C(=O)NCc2ccccc2)=C[C@@H](c2ccc(Br)cc2)[C@@H]1CCCO 12.6 µM [inhibitor, single point]
COc1ccc(S(=O)(=O)n2ccc(-c3ccc4c(c3)CCC(C)(C)O4)n2)cc1 15.8 µM [inhibitor, single point]
COc1cc(S(=O)(=O)N2CCN(c3ccccc3)CC2)ccc1Cl 28.2 µM [inhibitor, single point]
Cc1ccccc1Cn1c(=N)n(CC(O)c2ccco2)c2ccccc21 (centres undefined) 8.91 µM [inhibitor, partial curve, poor fit]
C=Cc1ccc(Cn2c(C(=O)O)c(CNC3CCCC3)c3ccc(C)cc32)cc1 28.2 µM [inhibitor, single point]
CN(C)S(=O)(=O)c1ccc2c(c1)N(CC(=O)Nc1ccc(OC(F)(F)F)cc1)C(=O)CS2 31.6 µM [inhibitor, single point]
Cc1nnsc1C(=O)N1CCCC(N2CCN(c3cccc(C(F)(F)F)c3)CC2)C1 (centres undefined) 10 µM [inhibitor, single point]
O=C(NCCN1CCC(Cc2ccccc2)CC1)C1CCN(S(=O)(=O)N2CCC3(CC2)OCCO3)CC1 15.8 µM [inhibitor, partial curve, poor fit]
Brc1ccc(-c2nc3ccccn3c2Nc2ccc3c(c2)OCCO3)o1 6.31 µM [inhibitor, partial curve, poor fit]
COc1cc(/C=N/Nc2nc(Nc3ccccc3)nc(-n3nc(C)cc3C)n2)cc(OC)c1OC 7.08 µM [inhibitor, partial curve, poor fit]
Cc1ccc(C(=O)Nc2cc(C)c(OCC(=O)N3CCOCC3)c(C)c2)cc1 17.8 µM [inhibitor, single point]
COC(=O)c1c(C)oc2ccc(N(C(C)=O)S(=O)(=O)c3ccccc3)cc12 14.1 µM [inhibitor, partial curve, poor fit]
COc1cccc(N2CCN(c3ncnc4c3nc3n4CCCCC3)CC2)c1 7.94 µM [inhibitor, partial curve, poor fit]
Cc1c(O)ccc(/C(Cc2ccc3ccccc3n2)=N\N)c1O 22.4 µM [inhibitor, single point]
C=CCn1c(SCC(=O)NC(=O)NCCC)nnc1C1CCCCC1 31.6 µM [inhibitor, single point]
O=C(CNc1cc(S(=O)(=O)N2CCCC2)ccc1OCC(F)(F)F)Nc1ccc(SC(F)F)cc1 1.78 µM [inhibitor, full curve]
Cc1ccc(C)c(C(=O)CCC(=O)Nc2ccc(F)cc2)c1 28.2 µM [inhibitor, single point]
Cc1cc(S(=O)(=O)N2CCN(CC(=O)NC(C)(C#N)C3CC3)CC2)ccc1Br (centres undefined) 12.6 µM [inhibitor, single point]
COc1ccc(/C=N/NC(=S)NCC2CCCO2)cc1 (centres undefined) 28.2 µM [inhibitor, single point]
Fc1cccc(NC(=S)Nc2ccc(Br)cc2)c1 28.2 µM [inhibitor, single point]
Fc1ccc(NC(=S)Nc2cccc3ccccc23)cc1F 7.08 µM [inhibitor, partial curve, poor fit]
Cn1cc(CNCc2cnc3ccccn23)c(-c2ccc(Oc3ccccc3)cc2)n1 31.6 µM [inhibitor, single point]
Cc1cc(C(=O)N2CCCC(N3CCN(c4cccc(C(F)(F)F)c4)CC3)C2)c(C)o1 (centres undefined) 11.2 µM [inhibitor, partial curve, poor fit]
O=S(=O)(c1ccc(Cl)cc1)c1snnc1-c1ccccc1 17.8 µM [inhibitor, partial curve, poor fit]
CCCS(=O)(=O)N1CCC(C(=O)NCCN(CC)c2ccccc2)CC1 11.2 µM [inhibitor, partial curve, poor fit]

Potency, inactive:
Cc1c(C(=O)N(Cc2ccc(N(C)C)cc2)CC2CCCO2)oc2ccc(Cl)cc12 (centres undefined)
COc1ccc(-c2nnc(SCc3nnc(-c4ccccc4)o3)n2-c2ccccc2)cc1
CC(C)(C)c1cc(C(=O)N/N=C/c2ccc(F)cc2)n(-c2ccccc2)n1
Cc1cccc(N(C)C(=O)CCS(=O)(=O)c2ccc3c(c2)oc(=O)n3C)c1
COC(c1ccccc1)c1nnc(CCC(=O)NC2C3CC4CC(C3)CC2C4)o1 (centres undefined)
Cc1oc(-c2ccc(Cl)cc2)nc1CS(=O)CC(=O)N1CCN(c2cccc(C(F)(F)F)c2)CC1 (centres undefined)
O=C(Nc1ccc(F)cc1)C(c1ccncc1)N1CCN(CC(=O)N2CCCC2)CC1 (centres undefined)

Potency, active:
CC(C)CCn1c(Sc2nc3ccccc3o2)nc2c1c(=O)[nH]c(=O)n2C 4.47 µM

Reference: PubChem BioAssay AID624417 (National Center for Advancing Translational Sciences (NCATS), 2012)
